IC50 is the fitted dose that halves viability relative to control wells, and lower means more sensitive; a fit beyond the top or the lowest dose is shown as a bound at that dose. AUC is the area under the same curve over the 256-fold range up to the top dose, as a fraction; it is 1 without any effect and falls as sensitivity rises. For some assays here: The top dose, if marked as inferred, was derived from the fitted curves, not read from the paper. For some assays here: Drugs with an entry number were screened twice under separate entries, and the two screens often disagree.
How the values were obtained:
PAC-1 = compound: C=CCc1cccc(/C=N/NC(=O)CN2CCN(Cc3ccccc3)CC2)c1O [PAC-1]; assay: Viability of human cancer cell lines after 72 h of drug (GDSC screen); conditions: top dose 2.56 µM
Experimental: (§1)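 Human cancer cell lines in 384-well plates, medium with 10% serum, drug for 72 h over a 256-fold dose range (nine 2-fold or five 4-fold steps up to the top dose). Adherent lines were fixed and stained with the nucleic acid dye Syto60, suspension lines read with resazurin; signal relative to control wells, capped at 0 and 100%. One two-parameter sigmoid per drug and line, fitted in a mixed model over all curves with the slope shared within a line.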

BMS-708163 = compound: NC(=O)[C@@H](CCC(F)(F)F)N(Cc1ccc(-c2ncon2)cc1F)S(=O)(=O)c1ccc(Cl)cc1 [BMS-708163]; assay: as above; conditions: top dose 5 µM; screen: GDSC drug entry 1072; top dose inferred
Experimental: as §1

Cell Line	AUC (PAC-1)	IC50 (PAC-1) [µM]	AUC (BMS-708163)	IC50 (BMS-708163) [µM]
KON (head and neck, adherent)	0.975	> 2.56	0.985	> 5
KOPN-8 (B-cell leukaemia, suspension)	0.779	0.892	0.982	> 5
KOSC-2 (head and neck, adherent)	0.981	> 2.56	0.944	> 5
KP-1N (pancreas, adherent)	0.863	2.39	0.984	> 5
KP-2 (pancreas, adherent)	0.872	> 2.56	0.986	> 5
KP-3 (pancreas, adherent)	0.848	2.48	0.972	> 5
KP-4 (pancreas, adherent)	0.987	> 2.56	0.98	> 5
KU-19-19 (bladder, adherent)	0.985	> 2.56	0.971	> 5
KYM-1 (rhabdomyosarcoma, adherent)	0.99	> 2.56	0.991	> 5
KYSE-50 (oesophagus, adherent)	0.99	> 2.56	0.986	> 5
KYSE-70 (oesophagus, adherent)	0.98	> 2.56	0.977	> 5
KYSE-140 (oesophagus, adherent)	0.824	1.79	0.983	> 5
KYSE-150 (oesophagus, adherent)	0.893	> 2.56	0.935	> 5
KYSE-180 (oesophagus, adherent)	0.903	> 2.56	0.985	> 5
KYSE-220 (oesophagus, adherent)	0.973	> 2.56	0.956	> 5
KYSE-270 (oesophagus, adherent)	0.808	1.1	0.979	> 5
KYSE-410 (oesophagus, adherent)	0.787	1.19	0.983	> 5
KYSE-450 (oesophagus, adherent)	0.826	1.43	0.981	> 5
KYSE-510 (oesophagus, adherent)	0.872	1.76	0.991	> 5
KYSE-520 (oesophagus, adherent)	0.933	> 2.56	0.915	> 5
LC-1-sq (lung squamous cell carcinoma, adherent)	0.887	> 2.56	0.979	> 5
LCLC-103H (large cell lung carcinoma, adherent)	0.74	0.717	0.991	> 5
LK-2 (lung squamous cell carcinoma, adherent)	0.893	> 2.56	0.954	> 5

Cell Line	AUC (PAC-1)	IC50 (PAC-1) [µM]	AUC (BMS-708163)	IC50 (BMS-708163) [µM]
LN-18 (glioma, adherent)	0.981	> 2.56	0.982	> 5
LN-229 (glioma, adherent)	0.985	> 2.56	0.98	> 5
LN-405 (glioma, adherent)	0.979	> 2.56	0.913	> 5
LNZTA3WT4 (glioma, adherent)	0.974	> 2.56	0.968	> 5
LOU-NH91 (lung squamous cell carcinoma, adherent)	0.979	> 2.56	0.981	> 5
LS-180 (large intestine, adherent)	0.967	> 2.56	0.975	> 5
LU-99A (large cell lung carcinoma, adherent)	0.974	> 2.56	0.987	> 5
LU-135 (small cell lung carcinoma, suspension)	0.883	1.93	0.991	> 5
M14 (melanoma, adherent)	0.977	> 2.56	0.952	> 5
MC-IXC (neuroblastoma, adherent)	0.96	> 2.56	0.995	> 5
MCF7 (breast, adherent)	0.92	> 2.56	0.964	> 5
MDA-MB-157 (breast, adherent)	0.951	> 2.56	0.889	> 5
MDA-MB-175-VII (breast, adherent)	0.977	> 2.56	0.986	> 5
MDA-MB-231 (breast, adherent)	0.982	> 2.56	0.982	> 5
MDA-MB-361 (breast, adherent)	0.96	> 2.56	0.945	> 5
MDA-MB-415 (breast, adherent)	0.982	> 2.56	0.942	> 5
MDA-MB-436 (breast, adherent)	0.981	> 2.56	0.962	> 5
MDA-MB-453 (breast, adherent)	0.973	> 2.56	0.921	> 5
MDA-MB-468 (breast, adherent)	0.987	> 2.56	0.966	> 5
ME-180 (cervix, adherent)	0.98	> 2.56	0.965	> 5
MEL-JUSO (melanoma, adherent)	0.854	2.41	0.935	> 5
MES-SA (uterus, adherent)	0.976	> 2.56	0.93	> 5
MFE-280 (endometrium, adherent)	0.94	> 2.56	0.982	> 5

Cell Line	AUC (PAC-1)	IC50 (PAC-1) [µM]	AUC (BMS-708163)	IC50 (BMS-708163) [µM]
MFE-296 (endometrium, adherent)	0.984	> 2.56	0.985	> 5
MFE-319 (endometrium, adherent)	0.972	> 2.56	0.984	> 5
MG-63 (osteosarcoma, adherent)	0.97	> 2.56	0.933	> 5
MHH-ES-1 (Ewing sarcoma, adherent)	0.887	> 2.56	0.956	> 5
MIA-PaCa-2 (pancreas, adherent)	0.984	> 2.56	0.977	> 5
MKN1 (stomach, adherent)	0.9	> 2.56	0.986	> 5
MKN28 (stomach, adherent)	0.858	2.17	0.965	> 5
MKN45 (stomach, adherent)	0.751	1.04	0.915	> 5
ML-1 (thyroid, adherent)	0.907	> 2.56	0.982	> 5
MOG-G-CCM (glioma, adherent)	0.97	> 2.56	0.972	> 5
MOG-G-UVW (glioma, adherent)	0.967	> 2.56	0.971	> 5
MS751 (cervix, adherent)	0.989	> 2.56	0.986	> 5
NCI-H28 (mesothelioma, adherent)	0.968	> 2.56	0.896	> 5
NCI-H196 (small cell lung carcinoma, adherent)	0.943	> 2.56	0.988	> 5
NCI-H292 (lung adenocarcinoma, adherent)	0.907	> 2.56	0.87	> 5
NCI-H358 (lung adenocarcinoma, adherent)	0.811	1.55	0.96	> 5
NCI-H441 (lung adenocarcinoma, adherent)	0.883	> 2.56	0.979	> 5
NCI-H460 (large cell lung carcinoma, adherent)	0.896	> 2.56	0.968	> 5
NCI-H520 (lung squamous cell carcinoma, adherent)	0.943	> 2.56	0.962	> 5
NCI-H522 (lung adenocarcinoma, adherent)	0.905	> 2.56	0.972	> 5
NCI-H596 (lung adenocarcinoma, adherent)	0.884	> 2.56	0.923	> 5
NCI-H647 (non-small cell lung carcinoma, adherent)	0.948	> 2.56	0.982	> 5
NCI-H650 (lung adenocarcinoma, adherent)	0.863	> 2.56	0.964	> 5

Cell Line	AUC (PAC-1)	IC50 (PAC-1) [µM]	AUC (BMS-708163)	IC50 (BMS-708163) [µM]
NCI-H661 (large cell lung carcinoma, adherent)	0.929	> 2.56	0.933	> 5
NCI-H727 (lung carcinoid, adherent)	0.772	1.75	0.964	> 5
NCI-H838 (lung adenocarcinoma, adherent)	0.968	> 2.56	0.921	> 5
NCI-H841 (small cell lung carcinoma, adherent)	0.984	> 2.56	0.986	> 5
NCI-H1048 (small cell lung carcinoma, adherent)	0.988	> 2.56	0.96	> 5
NCI-H1435 (lung adenocarcinoma, semi-adherent)	0.993	> 2.56	0.991	> 5
NCI-H1437 (lung adenocarcinoma, adherent)	0.865	2.42	0.985	> 5
NCI-H1563 (lung adenocarcinoma, adherent)	0.956	> 2.56	0.985	> 5
NCI-H1568 (lung adenocarcinoma, adherent)	0.688	0.616	0.979	> 5
NCI-H1573 (lung adenocarcinoma, adherent)	0.986	> 2.56	0.978	> 5
NCI-H1623 (lung adenocarcinoma, adherent)	0.981	> 2.56	0.911	> 5
NCI-H1651 (lung adenocarcinoma, adherent)	0.914	> 2.56	0.901	> 5
NCI-H1688 (small cell lung carcinoma, adherent)	0.96	> 2.56	0.978	> 5
NCI-H1693 (lung adenocarcinoma, adherent)	0.961	> 2.56	0.976	> 5
NCI-H1703 (lung adenocarcinoma, adherent)	0.973	> 2.56	0.969	> 5
NCI-H1734 (lung adenocarcinoma, adherent)	0.953	> 2.56	0.985	> 5
NCI-H1755 (lung adenocarcinoma, adherent)	0.982	> 2.56	0.926	> 5
NCI-H1781 (lung adenocarcinoma, adherent)	0.96	> 2.56	0.989	> 5
NCI-H1792 (lung adenocarcinoma, adherent)	0.972	> 2.56	0.903	> 5
NCI-H1793 (lung adenocarcinoma, adherent)	0.971	> 2.56	0.982	> 5
NCI-H1915 (large cell lung carcinoma, adherent)	0.978	> 2.56	0.988	> 5
NCI-H1944 (lung adenocarcinoma, adherent)	0.948	> 2.56	0.944	> 5
NCI-H1993 (lung adenocarcinoma, adherent)	0.98	> 2.56	0.948	> 5

— the supplement of paper PMC4967469
